# The list shows a part of the results.
# B1: PX14343A-bvu-539-29-539 (Bacteroides vulgatus) (protein)
# chain: DSLTESSSNTFWQTPDDALMALASCYDALQSNQLYNSDQYSLGPLYMDCISDNGGHFNWSGWMEGYDMAMGIHTPSSSIIGSYWKDCYEVISRCNVLIANIDRVDMDASQKAIYQAEAKTIRALMYINLTMTYQDVPFLTAPLTIDEAECEKTDRAAIVAHVMTDLQDAAEVLPQNASSRGHITKGAALSLLGRVALYNEKWDDAIAAYKQVQGLGYSLDPSYAKLFTQSGETSPEIIFAVRYEGPGMSEGAAFNAHWNTPLEAMNGTIDLADAYYCKDGKPTTDTKIAELNGGGGLDVSKPNPAHFENRDPRLYSTLFVPGMLWNGKGGIDTSASNPYANVYGGAAASLSTVYVYKYFDPTDTSNSWDNGQDFYVVRYAEVLLSLAEAMVQKGGYVYSDVTALVNEVRQRADVNMPTVEEVEGTSLSKDELLEVIKHERRVELAFEGLRLFDLYRWKELDKAVANIENERTMYGLAYEARKFNGERDYVWPLPTAELDTNKKLVQHDLWK
# Columns and labels:
# Assay in all cases: glycan array binding signal (z-score within array); higher = stronger binding
# Settings in all cases: glycan notation: IUPAC condensed, linker removed
# Fuc(a1-2)Gal = target: Fuc(a1-2)Gal
# How it was run: (§1)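 Glycan array binding is given as a within-array Z-score, which can be read as non-binding when negative. The arrays, 3228 of them, came from the Consortium for Functional Glycomics database and were retained only where the protein sequence was available. Z-scores were averaged across arrays of the same protein sequence at different concentrations or buffers and across linkers.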
# Fuc(a1-2)Gal(b1-3)GalNAc = target: Fuc(a1-2)Gal(b1-3)GalNAc
# How it was run: as §1
# [1] = target: Fuc(a1-2)Gal(b1-3)GalNAc(a1-3)[Fuc(a1-2)]Gal(b1-4)Glc
# How it was run: as §1
# [2] = target: Fuc(a1-2)Gal(b1-3)GalNAc(a1-3)[Fuc(a1-2)]Gal(b1-4)GlcNAc
# How it was run: as §1
# [3] = target: Fuc(a1-2)Gal(b1-3)GalNAc(b1-3)Gal
# How it was run: as §1
# [4] = target: Fuc(a1-2)Gal(b1-3)GalNAc(b1-3)Gal(a1-4)Gal(b1-4)Glc
# How it was run: as §1
# [5] = target: Fuc(a1-2)Gal(b1-3)GalNAc(b1-4)[Neu5Ac(a2-3)]Gal(b1-4)Glc
# How it was run: as §1
# Fuc(a1-2)Gal(b1-3)GlcNAc = target: Fuc(a1-2)Gal(b1-3)GlcNAc
# How it was run: as §1
# [6] = target: Fuc(a1-2)Gal(b1-3)GlcNAc(b1-2)Man(a1-3)[Fuc(a1-2)Gal(b1-3)GlcNAc(b1-2)Man(a1-6)]Man(b1-4)GlcNAc(b1-4)GlcNAc
# How it was run: as §1
# [7] = target: Fuc(a1-2)Gal(b1-3)GlcNAc(b1-2)Man(a1-3)[Fuc(a1-2)Gal(b1-3)GlcNAc(b1-2)Man(a1-6)]Man(b1-4)GlcNAc(b1-4)[Fuc(a1-6)]GlcNAc
# How it was run: as §1
# [8] = target: Fuc(a1-2)Gal(b1-3)GlcNAc(b1-3)Gal(b1-4)Glc
# How it was run: as §1
# [9] = target: Fuc(a1-2)Gal(b1-3)GlcNAc(b1-3)GalNAc
# How it was run: as §1
# [10] = target: Fuc(a1-2)Gal(b1-3)GlcNAc(b1-3)[Fuc(a1-2)Gal(b1-3)GlcNAc(b1-6)]GalNAc
# How it was run: as §1
# [11] = target: Fuc(a1-2)Gal(b1-3)GlcNAc(b1-3)[Gal(b1-4)GlcNAc(b1-6)]Gal(b1-4)Glc
# How it was run: as §1
# [12] = target: Fuc(a1-2)Gal(b1-3)GlcNAc(b1-3)[Neu5Ac(a2-6)Gal(b1-4)GlcNAc(b1-6)]Gal(b1-4)Glc
# How it was run: as §1
# [13] = target: Fuc(a1-2)Gal(b1-3)GlcNAc6S
# How it was run: as §1
# [14] = target: Fuc(a1-2)Gal(b1-3)[Fuc(a1-4)]GlcNAc
# How it was run: as §1
# [15] = target: Fuc(a1-2)Gal(b1-3)[Fuc(a1-4)]GlcNAc(b1-2)Man(a1-3)[Fuc(a1-2)Gal(b1-3)[Fuc(a1-4)]GlcNAc(b1-2)Man(a1-3)]Man(b1-4)GlcNAc(b1-4)GlcNAc
# How it was run: as §1
# [16] = target: Fuc(a1-2)Gal(b1-3)[Fuc(a1-4)]GlcNAc(b1-2)Man(a1-3)[Fuc(a1-2)Gal(b1-3)[Fuc(a1-4)]GlcNAc(b1-2)Man(a1-6)]Man(b1-4)GlcNAc(b1-4)[Fuc(a1-6)]GlcNAc(b1-4)[Fuc(a1-6)]GlcNAc
# How it was run: as §1
# [17] = target: Fuc(a1-2)Gal(b1-3)[Fuc(a1-4)]GlcNAc(b1-3)[Fuc(a1-3)[Gal(b1-4)]GlcNAc(b1-6)]Gal(b1-4)Glc
# How it was run: as §1
# [18] = target: Fuc(a1-2)Gal(b1-3)[Fuc(a1-4)]GlcNAc(b1-3)[Gal(b1-4)GlcNAc(b1-6)]Gal(b1-4)Glc
# How it was run: as §1
# Fuc(a1-2)Gal(b1-4)Glc = target: Fuc(a1-2)Gal(b1-4)Glc
# How it was run: as §1
# Fuc(a1-2)Gal(b1-4)Glc6S = target: Fuc(a1-2)Gal(b1-4)Glc6S
# How it was run: as §1
# Fuc(a1-2)Gal(b1-4)GlcNAc = target: Fuc(a1-2)Gal(b1-4)GlcNAc
# How it was run: as §1
# [19] = target: Fuc(a1-2)Gal(b1-4)GlcNAc(b1-2)Man
# How it was run: as §1
# [20] = target: Fuc(a1-2)Gal(b1-4)GlcNAc(b1-2)Man(a1-3)[Fuc(a1-2)Gal(b1-4)GlcNAc(b1-2)Man(a1-6)]Man(b1-4)GlcNAc(b1-4)GlcNAc
# How it was run: as §1
# [21] = target: Fuc(a1-2)Gal(b1-4)GlcNAc(b1-2)Man(a1-3)[Fuc(a1-2)Gal(b1-4)GlcNAc(b1-2)Man(a1-6)]Man(b1-4)GlcNAc(b1-4)[Fuc(a1-6)]GlcNAc
# How it was run: as §1
# [22] = target: Fuc(a1-2)Gal(b1-4)GlcNAc(b1-2)[Fuc(a1-2)Gal(b1-4)GlcNAc(b1-4)]Man(a1-3)[Fuc(a1-2)Gal(b1-4)GlcNAc(b1-2)Man(a1-6)]Man(b1-4)GlcNAc(b1-4)GlcNAc
# How it was run: as §1
# [23] = target: Fuc(a1-2)Gal(b1-4)GlcNAc(b1-3)Gal(b1-4)GlcNAc
# How it was run: as §1
# [24] = target: Fuc(a1-2)Gal(b1-4)GlcNAc(b1-3)Gal(b1-4)GlcNAc(b1-2)Man(a1-3)[Fuc(a1-2)Gal(b1-4)GlcNAc(b1-3)Gal(b1-4)GlcNAc(b1-2)Man(a1-6)]Man(b1-4)GlcNAc(b1-4)GlcNAc
# How it was run: as §1
binder,measurement,setting,value
B1,glycan array binding signal (z-score),Fuc(a1-2)Gal,-0.27
same,glycan array binding signal (z-score),Fuc(a1-2)Gal(b1-3)GalNAc,-0.467
same,glycan array binding signal (z-score),[1],-0.355
same,glycan array binding signal (z-score),[2],-0.346
same,glycan array binding signal (z-score),[3],-0.015
same,glycan array binding signal (z-score),[4],-0.346
same,glycan array binding signal (z-score),[5],-0.271
same,glycan array binding signal (z-score),Fuc(a1-2)Gal(b1-3)GlcNAc,-0.028
same,glycan array binding signal (z-score),[6],-0.158
same,glycan array binding signal (z-score),[7],1.93
same,glycan array binding signal (z-score),[8],-0.207
same,glycan array binding signal (z-score),[9],-0.39
same,glycan array binding signal (z-score),[10],-0.03
same,glycan array binding signal (z-score),[11],-0.115
same,glycan array binding signal (z-score),[12],-0.213
same,glycan array binding signal (z-score),[13],-0.374
same,glycan array binding signal (z-score),[14],-0.495
same,glycan array binding signal (z-score),[15],-0.09
same,glycan array binding signal (z-score),[16],-0.092
same,glycan array binding signal (z-score),[17],-0.261
same,glycan array binding signal (z-score),[18],-0.071
same,glycan array binding signal (z-score),Fuc(a1-2)Gal(b1-4)Glc,-0.057
same,glycan array binding signal (z-score),Fuc(a1-2)Gal(b1-4)Glc6S,-0.328
same,glycan array binding signal (z-score),Fuc(a1-2)Gal(b1-4)GlcNAc,-0.293
same,glycan array binding signal (z-score),[19],-0.324
same,glycan array binding signal (z-score),[20],0.292
same,glycan array binding signal (z-score),[21],-0.146
same,glycan array binding signal (z-score),[22],-0.05
same,glycan array binding signal (z-score),[23],-0.248
same,glycan array binding signal (z-score),[24],8.08

# — the supplement of paper PMC8728848
